# Test results published in paper PMC4336329 (PLoS ONE, 2015).
# Hit rate of the full screen: of about 310,000 compounds, about 2,200 (0.71%) showed an effect of 50% or more. The effect is printed as a negative number. The list shows a part of the results.
# Target: human ether-à-go-go-related gene (hERG) potassium channel (human, UniProt Q12809)
# Assay: primary screen, population patch clamp on CHO cells stably expressing hERG
# Chain of human ether-à-go-go-related gene (hERG) potassium channel (Q12809 whole entry, looked up): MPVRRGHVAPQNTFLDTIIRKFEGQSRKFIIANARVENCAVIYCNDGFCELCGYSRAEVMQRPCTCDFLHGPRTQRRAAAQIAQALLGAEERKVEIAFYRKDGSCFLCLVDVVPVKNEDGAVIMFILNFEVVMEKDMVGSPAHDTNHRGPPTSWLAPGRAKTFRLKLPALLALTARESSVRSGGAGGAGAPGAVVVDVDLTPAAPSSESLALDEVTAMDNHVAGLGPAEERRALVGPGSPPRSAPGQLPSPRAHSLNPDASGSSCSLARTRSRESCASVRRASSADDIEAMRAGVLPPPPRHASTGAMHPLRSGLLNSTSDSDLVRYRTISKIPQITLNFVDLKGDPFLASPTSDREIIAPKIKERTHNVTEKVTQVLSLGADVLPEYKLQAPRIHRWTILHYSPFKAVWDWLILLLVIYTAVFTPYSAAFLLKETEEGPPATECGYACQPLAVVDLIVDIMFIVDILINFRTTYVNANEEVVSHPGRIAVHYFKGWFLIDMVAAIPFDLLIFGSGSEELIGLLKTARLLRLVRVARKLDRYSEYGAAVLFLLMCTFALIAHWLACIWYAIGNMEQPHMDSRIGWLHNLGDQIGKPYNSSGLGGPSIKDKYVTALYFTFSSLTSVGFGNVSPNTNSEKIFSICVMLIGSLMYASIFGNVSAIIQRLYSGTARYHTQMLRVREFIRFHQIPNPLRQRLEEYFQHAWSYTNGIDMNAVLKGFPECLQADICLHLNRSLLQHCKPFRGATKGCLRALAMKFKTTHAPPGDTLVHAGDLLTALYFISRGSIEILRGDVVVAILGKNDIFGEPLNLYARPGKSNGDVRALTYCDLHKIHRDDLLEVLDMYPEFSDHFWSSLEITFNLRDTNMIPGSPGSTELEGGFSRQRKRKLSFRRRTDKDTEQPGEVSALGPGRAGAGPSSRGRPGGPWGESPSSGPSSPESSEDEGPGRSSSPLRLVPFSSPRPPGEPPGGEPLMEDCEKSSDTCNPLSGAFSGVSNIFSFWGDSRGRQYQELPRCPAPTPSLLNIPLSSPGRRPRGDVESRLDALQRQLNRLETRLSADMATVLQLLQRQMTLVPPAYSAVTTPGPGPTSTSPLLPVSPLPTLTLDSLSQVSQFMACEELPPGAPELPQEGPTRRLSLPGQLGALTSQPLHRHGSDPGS
row,Structure (SMILES),"hERG current change (%, negative = inhibition) at 1uM [%]"
1,COC(=O)CCSCC(=O)N1N=C(c2ccc(OC)cc2)CC1c1cccc(OC)c1OC (centres unmarked),7.54
2,Cc1ccc(S(=O)(=O)N2CCCC2CNC(=O)C(=O)NCCN2CCOCC2)cc1 (centres unmarked),16.8
3,Cc1cccc(NS(=O)(=O)c2ccc(OCC(=O)N3CCCC3)cc2)c1,4.9
4,CCC(C)c1ccc(O)c(NC(=S)NC(=O)c2cccnc2)c1 (centres unmarked),11.9
5,CC(C)(C)c1ccccc1OCC(O)CN1CCN(c2ccccn2)CC1.Cl (centres unmarked),-9.59
6,C/C(=N\NC(=O)COc1ccccc1[N+](=O)[O-])c1cccs1,15.9
7,COc1ccc(CNC(=S)Nc2ccc3nc(N4CCOCC4)cc(C)c3c2)cc1,4.04
8,C=CCNc1nc2c(c(=O)n(C)c(=O)n2C)n1Cc1ccc(F)cc1,5.56
9,Cn1nc(-c2ccccc2)c(C(=O)Nc2ccc(Cl)cc2)c1Cl,-12.9
10,C=CCNC(=O)C1COc2ccccc2O1 (centres unmarked),6.81
11,O=C(c1ccc([N+](=O)[O-])cc1)c1cc2ccc(O)cc2oc1=O,5.39
12,C[C@@H](C(=O)NCc1ccccn1)[C@@H]1C[C@@]1(C)[C@@H](NC(=O)OCc1ccccc1)c1ccccc1,-2.32
13,Cc1cc(C)c2c(n1)nn1c(NCCOCCO)cc(C)nc21,1.69
14,Cc1ccc(S(=O)(=O)C2(C(=O)Nc3ccc4c(c3)OCO4)CC2)cc1,-2.71
15,CCOc1ccc(S(=O)(=O)NCc2ccc(Cl)cc2)c2cccnc12,2.81
16,CSc1ncccc1C(=O)Nc1nc(C(C)(C)C)cs1,3.63
17,COc1ccc(-c2ccc(CCC(=O)O)n2CC(=O)Nc2cccc(OC)c2)cc1,5.42
18,N#Cc1c(N)c(C#N)c(-c2ccc(O)cc2)c2c1CCCC2,-1.33
19,COc1cc2ncnc(NCCCN3CCOCC3)c2cc1OC,17.3
20,CC(NC(=O)OC1CCCCC1)N1C(=O)C2C3C=CC(C3)C2C1=O (centres unmarked),9.97
21,C[NH+](C)CCOC(=O)C1(c2ccccc2)CCOCC1.[Cl-],9.36
22,O=C(CSc1nnnn1-c1ccc(Cl)cc1)Nc1cccnc1Cl,-0.418
23,Cc1occc1-c1nc(-c2ccncc2)no1,1.05

row,Structure (SMILES),"hERG current change (%, negative = inhibition) at 1uM [%]"
1,COc1cccc(/C=N/Nc2ccnc(=O)[nH]2)c1O,11.2
2,CN(C(=O)Cn1nnc(-c2cccc(C(F)(F)F)c2)n1)C1CCCCC1,11.4
3,O=C(Nc1ccccc1N1CCCC1)c1ccco1,14.1
4,O=C(CN1C(=O)CSC1=O)NC1CCCCC1,-8.29
5,Cc1ccccc1N(CC(=O)N/N=C/c1ccccc1Cl)C(=O)c1ccccc1,6.14
6,O=C(c1cccc(Oc2ccccc2)c1)N1CCOCC1,6.28
7,Cc1ccc(-c2ccc(=O)n(CC(=O)N3CCN(c4cc(Cl)ccc4C)CC3)n2)cc1,-7.47
8,COc1ccc(N(C)C(=O)C2CCN(S(=O)(=O)c3cccc4nonc34)CC2)cc1,5.89
9,CCOC(=O)c1nn(-c2cccc(Cl)c2)c2nc(Nc3ccccc3)cc(=O)n12,14.4
10,O=C(c1ccc2c(c1)ncn2-c1ccc(F)cc1F)N1CCC2(CC1)OCCO2,-1.88
11,COCCNC(=O)c1ccc(C(=O)NCCOC)s1,16.6
12,C/C=C/C=[N+](\[O-])C(C)/C(=N/O)c1ccc(F)cc1 (centres unmarked),-16.3
13,O=C(O)CSc1nnc(-c2ccc3c(c2)OCO3)o1,-5.58
14,COc1cccc(NC(=O)C2CCN(C(=O)NC3CCCCC3)CC2)c1,12.4
15,COc1ccc(NC(=S)N(CCC(C)C)C2CCN(C(C)C)CC2)cc1,9.32
16,O=C(c1cccc2nc3ccccc3nc12)N1CCOCC1,11.6
17,Cc1ccc(S(=O)(=O)N2C3C=CC(C3)C2C(=O)O)cc1 (centres unmarked),12.6
18,CC(=O)CCc1ccc(OCCCCn2cncn2)cc1,3.73
19,CCCn1c(C(C)Nc2nc(-c3cccc(Br)c3)cs2)nc2ccccc21 (centres unmarked),1.41
20,O=C(Nc1nccs1)C1CC(=O)N(c2ccc(Cl)cc2)C1 (centres unmarked),3.23
21,COC(=O)c1ccccc1NC(=O)C1CCCN(S(=O)(=O)c2ccc(F)cc2)C1 (centres unmarked),13.2
22,CCC1Sc2ccc(S(=O)(=O)CCC(=O)NC3CCCCCC3)cc2NC1=O (centres unmarked),9.99
23,O=C(Nc1nc2ccccc2s1)C1=NN(c2ccccc2)C(=O)CC1,17.1

row,Structure (SMILES),"hERG current change (%, negative = inhibition) at 1uM [%]"
1,Oc1ccccc1CNc1ccc2c(c1)OCCO2,9.76
2,CC1(C)CC(=O)c2cc(C(=O)Nn3cnnc3)c(=O)n(-c3ccccc3)c2C1,0.727
3,O=C(N/N=C/c1cn(-c2ccccc2)nc1-c1cccs1)c1ccc(Cl)cc1,13.9
4,CC(=O)Nc1ccc(C(=O)NC2CCSc3ccccc32)cc1 (centres unmarked),-1.13
5,COc1cccc(CC2(CO)CCCN(Cc3nc(-c4cccs4)oc3C)C2)c1 (centres unmarked),-31.5
6,CSCCC(NC(=O)/C(=C/c1ccc(F)cc1)NC(C)=O)C(=O)O (centres unmarked),22.3
7,Cc1ccc(C(=O)c2nccn2C)cc1C,16.2
8,O=C(Nc1cc(S(=O)(=O)N2CCOCC2)ccc1Oc1ccc(F)cc1)C1=COCCO1,-13.6
9,O=C([O-])c1cc(-c2ccco2)nc2ccc(Br)cc12.[K+],6.61
10,CS(=O)(=O)N(CC(=O)N1CCc2ccccc2C1)Cc1ccccc1,-1.71
11,Cc1ccc(C)c(NC(=O)CN(C)C(=O)Cn2c(=O)oc3ccccc32)c1,11.6
12,CCOc1ccc(/C=N/n2cnnc2)cc1,12.3
13,CCCc1c(C(=O)O)cnn1-c1ccc(Cl)cc1,17.3
14,COc1ccc(Br)cc1/C=C/C(=O)c1ccc(NC(C)=O)cc1,12.4
15,COc1ccc(NC(=O)c2ccc3c(c2)OCCO3)cc1OC,14.2
16,O=C(CCCCCn1c(=O)[nH]c2ccccc2c1=O)N1CCN(Cc2ccc3c(c2)OCO3)CC1,-25.9
17,CCN(CC)CC(=O)NC12CC3CC(CC(C3)C1)C2.Cl,4.95
18,FC(F)(F)c1cccc(-c2nc(COc3ccc(Cl)cc3Cl)no2)c1,15
19,CCN(CC)C(=O)c1[nH]cnc1C(=O)N[C@H](C)c1ccccc1,14.9
20,CC1CN(C2CCN(S(=O)(=O)c3ccc(F)cc3)CC2)CC(C)O1.O=C(O)C(=O)O (centres unmarked),-5.14
21,C=CCN(CC=C)S(=O)(=O)c1ccc(NC(=S)NC(=O)C2CC2)cc1,8.03
22,Cc1c([N+](=O)[O-])c(C(=O)Sc2ccc(Br)cc2)nn1C,12.6
23,COc1c(C)cc(C(=O)C2CCCN(C(=O)c3ccc4[nH]ccc4c3)C2)cc1C (centres unmarked),12.8

row,Structure (SMILES),"hERG current change (%, negative = inhibition) at 1uM [%]"
1,CCOc1ccc(N2C(=O)C3C4C=CC([C@H]5CC45)[C@@H]3C2=O)cc1 (some centres unmarked),12.8
2,COc1ccc(C2C(C(=O)N3CCC(C)CC3)c3ccccc3C(=O)N2C)cc1 (centres unmarked),5.4
3,CCOc1ccc(-n2nc3ccc(NC(=O)c4ccc5c(c4)OCCO5)cc3n2)cc1,4.27
4,CCOC(=O)CNC(=O)CSc1nc2ncc(Br)cc2[nH]1,13.5
5,CN1CCN(c2nc3c(c(=O)n(C)c(=O)n3C)n2Cc2ccccc2Cl)CC1,10.6
6,Cc1cc(C)nc(NS(=O)(=O)c2ccc(NC(=O)c3ccc(S(=O)(=O)N4CC(C)OC(C)C4)cc3)cc2)n1 (centres unmarked),1.41
7,COc1ccc(CCC(=O)N2CCCC(Nc3ccccc3)C2)cc1OC (centres unmarked),-2.92
8,COc1ccc(-c2cc(C(=O)N(C)Cc3ccccc3)no2)cc1OC,3.96
9,CCN(C(=O)c1cc2c(=O)[nH]c3ccc(C)cc3c2s1)c1ccc(F)cc1,1.21
10,COc1ccc(Cl)cc1C(=O)OCC(=O)Nc1cccnc1Cl,23.2
11,COc1cccc(-c2noc(Cn3nc(C)c([N+](=O)[O-])c3C)n2)c1,15.1
12,Cn1cccc1C(=O)Nc1nc(-c2ccccn2)cs1,19.2
13,C/C(=N\OC(=O)c1c(-c2ccccc2Cl)noc1C)c1ccncc1,-0.0398
14,O=c1[nH]n2c(=O)c3c([nH]c2c1N=Nc1cccc(C(F)(F)F)c1)CCCC3,2.18
15,O=C(Nc1ccc(-n2cccn2)cc1)C1CCN(Cc2ccsc2)CC1,-41.9
16,CN(C)/C(Cn1cncn1)=C1/N=C(c2c(F)cccc2F)OC1=O,11.6
17,C/C(=N/NC(=O)c1ccncc1)c1ccccc1,23.5
18,Cc1ccc(CNC(=O)c2ccccc2N(C)S(C)(=O)=O)cc1,11
19,CCOc1c2ccc(C(=O)NCc3cc(C(F)(F)F)cc(C(F)(F)F)c3)cc2nn1CCOC,7.84
20,COCc1cc(C)n(CC(=O)Nc2ccc(N3CCOCC3)cc2)c(=O)c1C#N,4.95
